# Measurements reported in the supplement of paper PMC3334620.
# The full ranking holds about 33,000 sequences; the median of “E-score (-0.5 to 0.5)” is about -0.035, and the highest 2% start at about 0.34. The list shows a part of the results.
# Biological target: T1, Mot3 (UniProt P54785)
# T1 sequence: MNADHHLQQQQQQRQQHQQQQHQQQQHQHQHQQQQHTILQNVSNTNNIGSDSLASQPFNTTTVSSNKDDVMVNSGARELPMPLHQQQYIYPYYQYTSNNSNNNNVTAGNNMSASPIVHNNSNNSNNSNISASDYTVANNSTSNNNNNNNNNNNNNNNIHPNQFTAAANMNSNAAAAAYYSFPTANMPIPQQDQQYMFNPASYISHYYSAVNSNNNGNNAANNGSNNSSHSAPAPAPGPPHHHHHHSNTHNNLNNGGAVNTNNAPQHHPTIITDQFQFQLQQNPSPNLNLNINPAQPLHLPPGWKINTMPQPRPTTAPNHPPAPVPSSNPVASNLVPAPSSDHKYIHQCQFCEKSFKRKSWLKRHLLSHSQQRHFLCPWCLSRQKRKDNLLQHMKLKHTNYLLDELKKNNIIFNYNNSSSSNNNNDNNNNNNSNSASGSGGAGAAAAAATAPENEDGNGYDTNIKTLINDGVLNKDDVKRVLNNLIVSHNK
# Experiment: PBM E-score (8-mer binding enrichment) (E-score (-0.5 to 0.5)); higher = stronger / more preferred TF binding; most listed sequences are background and not binding sites
# Details: protein concentration: 200 nM; construct: GST-full length
# Summary of the method: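 Masliner-normalised scans of fluorescent anti-GST signal were the basis for scoring. That signal came from GST-tagged yeast transcription factors applied at about 100-200 nM to double-stranded universal all-10-mer Agilent arrays on fresh or once-stripped slides. Each ungapped eight-base word, pooled with its reverse complement, received an E-score from the Universal PBM Analysis Suite.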
row,Sequence,PBM E-score
1,GTGGAGCA,-0.196
2,AGCCTTAA,0.158
3,AGGAGATC,-0.148
4,AACAAGTG,0.112
5,AAGGGTAC,0.111
6,AAGCATTG,-0.0699
7,GAACGGAC,-0.135
8,AGGAAGCC,-0.161
9,CGACCCAC,-0.213
10,AATCTTCA,0.00303
11,CAATGGCA,-0.0685
12,AGCTATGC,-0.0718
13,AACTATCC,-0.344
14,AATTCTGT,-0.158
15,GCCGAACC,-0.203
16,GGTGGGAC,-0.176
17,AACAATTA,0.185
18,CTACTTAC,0.161
19,CATCTGAC,-0.268
20,ACTATTTA,0.167
21,AATCCGCG,0.144
22,CGATCGAA,-0.156

row,Sequence,PBM E-score
1,ATGGCGCA,-0.186
2,AGCCGGGG,-0.393
3,CCTACCCG,0.0449
4,GAGTAGTA,-0.00293
5,CCAGTACC,-0.179
6,CACATAGC,0.0621
7,GCGTTTCA,0.0563
8,CCCTTGGA,-0.159
9,CCAGCGTA,-0.0545
10,ACTGAAAG,0.0927
11,GGTGTCCA,-0.237
12,CTACGCAC,0.122
13,ATTACACC,0.299
14,CGTTACAC,0.274
15,CGTTCCTC,0.167
16,AACCGAGG,-0.172
17,CACTGTTA,0.0232
18,CCTAACGC,0.158
19,CATCAGTA,0.00031
20,AGCTGAAT,-0.0351
21,AACCGCAG,-0.189
22,CATCATGA,0.051

row,Sequence,PBM E-score
1,ACGACTCC,-0.121
2,ACCGCTGC,-0.0644
3,CATTGTAA,0.303
4,ATAACTTA,0.174
5,AGTGGAAT,-0.108
6,CGACTGAG,-0.274
7,CATTAACA,0.299
8,GAGTTGTA,0.124
9,CCCCGCCG,-0.245
10,CTCGCTTA,-0.127
11,ATCTGCCA,-0.14
12,ATATGGTC,-0.0461
13,CCACGCAC,-0.152
14,AAATTGTT,0.00218
15,ACAGCTGC,0.00393
16,ATGATTGA,0.0645
17,ATAACCTG,0.0318
18,ACCACACA,0.219
19,CTGACCTA,-0.146
20,GGAGGGCC,-0.359
21,AATCGCGA,-0.104
22,CCGATCCG,-0.25

row,Sequence,PBM E-score
1,TATGTCAA,0.363
2,AGACGGCA,-0.122
3,ATGGCGCC,-0.126
4,CCATAAGC,-0.25
5,AAGTCGCA,0.0858
6,CCTATCGC,-0.0459
7,ATACCTCG,0.121
8,AAGCGGGC,-0.329
9,ACGAGCCA,-0.0579
10,GATTGACC,-0.0422
11,AGCCATCG,-0.203
12,GACTGATC,-0.0852
13,AAGCCCGC,-0.15
14,GCCACAAC,-0.0631
15,CCACAGGC,0.194
16,AGAGCGCC,0.0468
17,AGTACCGA,-0.209
18,AGACATTC,0.0131
19,CCAAAGAA,0.142
20,CAGACCAG,-0.199
